What all share (experiment): glycan array binding signal (z-score within array); higher = stronger binding
What all share (details): glycan notation: IUPAC condensed, linker removed

Experiment [1] addresses Gal(b1-4)GalNAc(b1-3)[Fuc(a1-2)]Gal(b1-4)GlcNAc. The procedure, abridged:
(§1)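 Negative Z-scores can be read as non-binding. The Z-score is calculated within each array and then averaged across arrays of one protein sequence at different concentrations or buffers and across linkers. Arrays, 3228 in all, were curated from the Consortium for Functional Glycomics database and kept only where the protein sequence was available.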

The next experiment has as its target Gal(b1-4)Glc. Summed up:
as §1

A further experiment has as its target Gal(b1-4)Glc6S. The procedure, abridged: as §1
A further experiment addresses Gal(b1-4)GlcNAc. The procedure, abridged:
as §1

In experiment [2] the target is Gal(b1-4)GlcNAc(a1-6)Gal(b1-4)GlcNAc. Summed up: as §1
Another experiment has as its target Gal(b1-4)GlcNAc(b1-2)Man. Summed up:
as §1

Experiment [3] has as its target Gal(b1-4)GlcNAc(b1-2)Man(a1-3)Man(b1-4)GlcNAc(b1-4)GlcNAc. Summed up: as §1
For experiment [4], the target named is Gal(b1-4)GlcNAc(b1-2)Man(a1-3)[Gal(b1-4)GlcNAc(b1-2)Man(a1-6)]Man(b1-4)GlcNAc(b1-4)GlcNAc. The procedure, abridged: as §1
Experiment [5] concerns the target Gal(b1-4)GlcNAc(b1-2)Man(a1-3)[Gal(b1-4)GlcNAc(b1-2)Man(a1-6)]Man(b1-4)GlcNAc(b1-4)[Fuc(a1-6)]GlcNAc. The procedure, abridged:
as §1

Experiment [6] has as its target Gal(b1-4)GlcNAc(b1-2)Man(a1-3)[Gal(b1-4)GlcNAc(b1-2)Man(a1-6)][Gal(b1-4)GlcNAc(b1-4)]Man(b1-4)GlcNAc(b1-4)[Fuc(a1-6)]GlcNAc. Summed up:
as §1

Experiment [7] addresses Gal(b1-4)GlcNAc(b1-2)Man(a1-3)[Gal(b1-4)GlcNAc(b1-2)Man(a1-6)][GlcNAc(b1-4)]Man(b1-4)GlcNAc(b1-4)[Fuc(a1-6)]GlcNAc. Summed up:
as §1

Experiment [8] concerns the target Gal(b1-4)GlcNAc(b1-2)Man(a1-3)[GlcNAc(b1-2)Man(a1-6)]Man(b1-4)GlcNAc(b1-4)GlcNAc. Summed up:
as §1

Experiment [9] deals with Gal(b1-4)GlcNAc(b1-2)Man(a1-3)[GlcNAc(b1-4)][Gal(b1-4)GlcNAc(b1-2)Man(a1-6)]Man(b1-4)GlcNAc(b1-4)GlcNAc. Summed up:
as §1

Experiment [10] concerns the target Gal(b1-4)GlcNAc(b1-2)Man(a1-3)[Man(a1-6)]Man(b1-4)GlcNAc(b1-4)GlcNAc. The procedure, abridged: as §1
For experiment [11], the target named is Gal(b1-4)GlcNAc(b1-2)Man(a1-6)Man(b1-4)GlcNAc(b1-4)GlcNAc. The procedure, abridged:
as §1

Experiment [12] concerns the target Gal(b1-4)GlcNAc(b1-2)Man(a1-6)[GlcNAc(b1-2)Man(a1-3)]Man(b1-4)GlcNAc(b1-4)GlcNAc. The procedure, abridged:
as §1

The target in experiment [13] is Gal(b1-4)GlcNAc(b1-2)Man(a1-6)[Man(a1-3)]Man(b1-4)GlcNAc(b1-4)GlcNAc. Summed up: as §1
Experiment [14] addresses Gal(b1-4)GlcNAc(b1-2)[Gal(b1-4)GlcNAc(b1-4)]Man(a1-3)[Gal(b1-4)GlcNAc(b1-2)Man(a1-6)]Man(b1-4)GlcNAc(b1-4)GlcNAc. The procedure, abridged:
as §1

Experiment [15] addresses Gal(b1-4)GlcNAc(b1-2)[Gal(b1-4)GlcNAc(b1-4)]Man(a1-3)[Gal(b1-4)GlcNAc(b1-2)[Gal(b1-4)GlcNAc(b1-6)]Man(a1-6)]Man(b1-4)GlcNAc(b1-4)GlcNAc. The procedure, abridged:
as §1

For experiment [16], the target named is Gal(b1-4)GlcNAc(b1-2)[Gal(b1-4)GlcNAc(b1-4)]Man(a1-3)[GlcNAc(b1-4)][Gal(b1-4)GlcNAc(b1-2)Man(a1-6)]Man(b1-4)GlcNAc(b1-4)GlcNAc. The procedure, abridged: as §1
Experiment [17] has as its target Gal(b1-4)GlcNAc(b1-2)[Gal(b1-4)GlcNAc(b1-4)]Man(a1-3)[GlcNAc(b1-4)][Gal(b1-4)GlcNAc(b1-2)[Gal(b1-4)GlcNAc(b1-6)]Man(a1-6)]Man(b1-4)GlcNAc(b1-4)GlcNAc. Summed up:
as §1

Experiment [18] addresses Gal(b1-4)GlcNAc(b1-2)[Gal(b1-4)GlcNAc(b1-6)]Man(a1-6)[Gal(b1-4)GlcNAc(b1-2)Man(a1-3)]Man(b1-4)GlcNAc(b1-4)GlcNAc. The procedure, abridged: as §1

The list shows a part of the results.

We go through 1 molecule from the supplement of paper PMC8728848.

B1: HML-Native (Hypnea musciformis), P84871 (protein)
chain: QKFCTLDIAPVCCQIVIGGGMYTAGNACMCEGFVSGVGRCENPKECPCTREAQIPSCCSSRWGLVSVTGKCACDCLGGTVAFPEPCPSPY
In the case of B1, the “glycan array binding signal (z-score)” value in experiment [1] is -0.216; with Gal(b1-4)Glc, -0.165; with Gal(b1-4)Glc6S, -0.313; with Gal(b1-4)GlcNAc, -0.292; in [2] it was -0.268; with Gal(b1-4)GlcNAc(b1-2)Man it was -0.297. Moreover, the “glycan array binding signal (z-score)” value in experiment [3] is -0.213; in [4] it was -0.207; in [5], 5.65; in experiment [6] it was 1.48; in experiment [7], 1.34; in experiment [8], -0.303. The “glycan array binding signal (z-score)” value in experiment [9] was -0.193; in [10], -0.291; in experiment [11], -0.307; in [12], -0.243; in experiment [13], -0.238; in experiment [14], -0.12. The “glycan array binding signal (z-score)” value in experiment [15] is -0.155; in experiment [16], -0.209; in [17] it was -0.193; in [18], -0.081.
